The full ranking holds about 33,000 sequences; the median of “E-score (-0.5 to 0.5)” is about -0.056, and the highest 2% start at about 0.38. The list shows a part of the results.
Target: Stb4 (UniProt P50104)
Assay: PBM E-score (8-mer binding enrichment) (E-score (-0.5 to 0.5)); higher = stronger / more preferred TF binding; most listed sequences are background and not binding sites
Details: protein concentration: 200 nM; construct: GST-DNA-binding domain
In short: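 For each ungapped eight-base word taken together with its reverse complement, the Universal PBM Analysis Suite assigned an E-score. Binding data came from GST-tagged yeast transcription factors, applied at about 100-200 nM, on universal all-10-mer Agilent arrays made double-stranded by primer extension. Fluorescent anti-GST marked bound protein, and scans were normalised with masliner.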

Compared with AATTGGAT, CAACTCCA is higher in “PBM E-score” value: -0.12 for the first, -0.0676 for the second.

Compared with ACCAGGCG, GAAGTCTA is higher in “PBM E-score” value: -0.159 for the first, -0.124 for the second.

Compared with ATGCAAGA, AGGATAAT is higher in “PBM E-score” value: -0.16 for the first, -0.0697 for the second.

First: AGCATCGA
Second: AACATCTT
The “PBM E-score” value of the first is lower: -0.0864 for the first, 0.0147 for the second.

Going from TGTGCGAA to AAAACATT, the “PBM E-score” value rises from -0.278 to -0.21.

Compared with CCATTAAG, GCAATGAC is lower in “PBM E-score” value: -0.161 for the first, -0.281 for the second.

First: TCCCACAA
Second: CGGTAGTC
The “PBM E-score” value of the first is lower: -0.0625 for the first, 0.212 for the second.

Going from CAGTGCCC to AATACTCC, the “PBM E-score” value rises from 0.00019 to 0.101.

Compared with CTTATCCC, CGTCGGGC is higher in “PBM E-score” value: 0.0732 for the first, 0.172 for the second.

First: GAACTAAC
Second: GCCTCTAA
The “PBM E-score” value of the first is higher: 0.0966 for the first, -0.13 for the second.

First: CGATAACC
Second: CCTTTCCA
The “PBM E-score” value of the first is higher: 0.213 for the first, -0.0672 for the second.

Going from ATCCATCA to GGTCAGAC, the “PBM E-score” value falls from -0.0756 to -0.287.

Compared with CTGCCCGC, GCACGGGA is higher in “PBM E-score” value: 0.0182 for the first, 0.305 for the second.

Compared with GACCTTTA, GAAGCGTA is higher in “PBM E-score” value: -0.0636 for the first, 0.123 for the second.

First: CGGTTATA
Second: AACTGGAT
The “PBM E-score” value of the first is higher: 0.295 for the first, -0.0514 for the second.

First: AATCTATC
Second: ACTGAGGC
The “PBM E-score” value of the first is lower: -0.0505 for the first, 0.062 for the second.

Compared with CCTAGGAA, ATAAAGTG is higher in “PBM E-score” value: -0.131 for the first, 0.0586 for the second.

Going from CTGAAGCC to AATGGAAT, the “PBM E-score” value rises from -0.0635 to 0.0324.

First: CCTTTACG
Second: GATGTCTA
The “PBM E-score” value of the first is higher: -0.0758 for the first, -0.17 for the second.

Going from CAGTACGC to CTGACTCA, the “PBM E-score” value falls from -0.13 to -0.323.

Going from ATAGTTTC to ACTAGATA, the “PBM E-score” value falls from -0.005 to -0.13.

Compared with CAATGTGG, ATTTTGTC is higher in “PBM E-score” value: -0.134 for the first, 0.0874 for the second.

Compared with GGCGAGAC, CAGTCGAA is higher in “PBM E-score” value: -0.245 for the first, -0.178 for the second.

Compared with AAGTTATT, GGCCATCA is lower in “PBM E-score” value: -0.0763 for the first, -0.11 for the second.

First: ACCTTCAT
Second: ACGCTAAA
The “PBM E-score” value of the first is higher: -0.111 for the first, -0.237 for the second.

Compared with GATCTGAA, GGCCCCCA is lower in “PBM E-score” value: -0.0769 for the first, -0.225 for the second.

Compared with ACGACCCC, CTACTAGC is higher in “PBM E-score” value: -0.139 for the first, 0.111 for the second.

Compared with CAGATGAC, ACAACAGT is higher in “PBM E-score” value: -0.202 for the first, -0.0877 for the second.

First: AACGGCAT
Second: ACTCAAAC
The “PBM E-score” value of the first is higher: 0.232 for the first, -0.118 for the second.

Going from GACTTACC to CTCAGCGC, the “PBM E-score” value falls from 0.168 to -0.213.

Going from AACAATTG to GGGGGGTA, the “PBM E-score” value rises from -0.23 to -0.0241.

First: CGCACAAC
Second: TCTTCACA
The “PBM E-score” value of the first is lower: -0.22 for the first, -0.119 for the second.

First: ATCTCCGA
Second: GTGATATA
The “PBM E-score” value of the first is higher: 0.396 for the first, -0.0589 for the second.

Going from CACCTAGC to ACTGAGTC, the “PBM E-score” value rises from -0.119 to -0.0516.

Compared with ATGAAGCC, AGGAATTG is lower in “PBM E-score” value: 0.169 for the first, -0.132 for the second.

Going from GGCCGCGA to ATCCCGGG, the “PBM E-score” value rises from -0.0905 to 0.355.

Compared with CCGAGTAG, CAGCTGAA is lower in “PBM E-score” value: 0.391 for the first, -0.147 for the second.

Compared with GATGCTGA, ACGGAAAG is higher in “PBM E-score” value: -0.176 for the first, 0.374 for the second.

Compared with GACGCTAC, ACTAACCT is lower in “PBM E-score” value: 0.0592 for the first, -0.115 for the second.

Compared with CTATACCC, CTTACCAA is lower in “PBM E-score” value: 0.149 for the first, -0.245 for the second.

First: TGTCACAA
Second: CCAACACG
The “PBM E-score” value of the first is higher: 0.0307 for the first, -0.104 for the second.

Going from GCCTGTCC to CGGACGAG, the “PBM E-score” value rises from -0.0763 to 0.111.

First: GTACCGCA
Second: AATGAATA
The “PBM E-score” value of the first is higher: 0.13 for the first, -0.165 for the second.

First: ACGCCCGG
Second: GGGTTTTA
The “PBM E-score” value of the first is higher: 0.181 for the first, 0.0725 for the second.

Compared with CGGGGCTA, AAGTCTTG is lower in “PBM E-score” value: 0.138 for the first, -0.0583 for the second.

First: CTTTACTC
Second: AGTACCCA
The “PBM E-score” value of the first is higher: -0.059 for the first, -0.0907 for the second.

Compared with TCCTTAAA, CTGCTCCC is higher in “PBM E-score” value: -0.428 for the first, 0.0152 for the second.

First: ATAAAGTA
Second: AAAAGCTA
The “PBM E-score” value of the first is higher: -0.0158 for the first, -0.0736 for the second.

First: CACCCTCA
Second: GATCAACA
The “PBM E-score” value of the first is lower: -0.241 for the first, -0.18 for the second.

First: CGTGAGAC
Second: AAACCTGG
The “PBM E-score” value of the first is higher: -0.111 for the first, -0.167 for the second.

Compared with CACGAGCA, ATCCGCGC is higher in “PBM E-score” value: -0.18 for the first, 0.332 for the second.

Compared with TCCGCAGA, AATCTCGG is higher in “PBM E-score” value: 0.0922 for the first, 0.434 for the second.

Going from CTCCAAGC to GGGCGCGA, the “PBM E-score” value rises from -0.215 to 0.22.

Compared with AGAGGAAG, CATACATG is lower in “PBM E-score” value: -0.202 for the first, -0.254 for the second.

Going from ATGTTACG to ACTCGCAA, the “PBM E-score” value falls from -0.124 to -0.197.

Compared with CAGCCTCC, CCCGCGGC is higher in “PBM E-score” value: -0.0731 for the first, 0.284 for the second.

Compared with CCCTCAGC, AAATCACG is higher in “PBM E-score” value: -0.236 for the first, 0.0354 for the second.

First: AGCCCCGG
Second: GGCCTCAA
The “PBM E-score” value of the first is higher: 0.188 for the first, 0.0517 for the second.

Going from GTAAAACA to AGTAGTTA, the “PBM E-score” value rises from -0.13 to -0.0446.

Going from CTCGAGAA to ATGCTAGG, the “PBM E-score” value rises from -0.198 to -0.0458.

Compared with CGCTATGA, AGTCGGAT is higher in “PBM E-score” value: -0.0586 for the first, 0.429 for the second.

Compared with CGGCATCA, GCTGGTAA is lower in “PBM E-score” value: 0.236 for the first, -0.0973 for the second.

Going from CAATGAGC to AAGTCATT, the “PBM E-score” value falls from -0.171 to -0.211.

Going from AGAGGTAG to TATAAAAA, the “PBM E-score” value rises from -0.29 to 0.0563.

First: CGAGCCCA
Second: ACCGCTAC
The “PBM E-score” value of the first is lower: -0.0285 for the first, -0.021 for the second.

Compared with AGTCGCCC, CGGCGTCC is higher in “PBM E-score” value: -0.122 for the first, 0.201 for the second.

First: TGATCCAA
Second: AAGTGGCC
The “PBM E-score” value of the first is higher: -0.00835 for the first, -0.0655 for the second.

First: ATTGCGTA
Second: ATAGCTAT
The “PBM E-score” value of the first is lower: -0.117 for the first, 0.125 for the second.

Going from CATCCGCG to AATGACGT, the “PBM E-score” value falls from 0.285 to -0.126.

Compared with AAGTACTA, ATAAGGAT is lower in “PBM E-score” value: -0.0492 for the first, -0.103 for the second.

Going from CGTAATGA to CTTGAAGA, the “PBM E-score” value falls from -0.0348 to -0.251.

Compared with ACAGCTTA, ACTATACA is higher in “PBM E-score” value: -0.219 for the first, -0.199 for the second.

Going from TAATATGA to CGAGGGTA, the “PBM E-score” value falls from 0.117 to 0.0333.

First: AGACCGTG
Second: ACGTGAGC
The “PBM E-score” value of the first is higher: -0.0481 for the first, -0.109 for the second.

First: AATCTACT
Second: GCATCGAA
The “PBM E-score” value of the first is higher: -0.0889 for the first, -0.189 for the second.

Going from AGCTCGCC to GCATCACA, the “PBM E-score” value rises from -0.0787 to -0.06.

Compared with GTCTTGCA, GCCTACAC is lower in “PBM E-score” value: 0.00052 for the first, -0.272 for the second.

Compared with CTGCGGGA, ATTCGTGG is lower in “PBM E-score” value: 0.136 for the first, -0.26 for the second.

Going from ACGCGTCA to GTCTGACA, the “PBM E-score” value rises from -0.152 to 0.0724.

Compared with GAATCCGC, TAACATCA is lower in “PBM E-score” value: 0.206 for the first, -0.176 for the second.

Compared with ACCCAGGG, CCGACCGC is higher in “PBM E-score” value: -0.274 for the first, 0.187 for the second.

Going from TAGGACGA to AGCCACAC, the “PBM E-score” value falls from -0.182 to -0.216.

First: AAACTCAT
Second: CGCAGATC
The “PBM E-score” value of the first is higher: 0.105 for the first, -0.0103 for the second.

Going from CTGATACA to CGACTACG, the “PBM E-score” value rises from -0.0562 to 0.077.

Going from CGAGTCAA to CGGCGCCG, the “PBM E-score” value rises from -0.0247 to 0.369.

Going from TAAACTCA to AAGCCTAA, the “PBM E-score” value falls from 0.0247 to -0.0457.

Reference: the supplement of paper PMC3334620
